In the supplement of paper PMC8728848:
The list shows a part of the results.

How the values were obtained:
Assay in all cases: glycan array binding signal (z-score within array); higher = stronger binding
Details in all cases: glycan notation: IUPAC condensed, linker removed
[1] = biological target: Man(a1-2)Man(a1-3)[Man(a1-2)Man(a1-6)]Man
Summary of the method: (§1)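 Glycan array data were curated from 3228 arrays in the Consortium for Functional Glycomics database and kept only where the protein sequence was available. Glycan names were converted to IUPAC-condensed notation, and columns mapping to the same glycan were averaged. The binding signal is a within-array Z-score, averaged across arrays of the same protein sequence at different concentrations or buffers and across linkers. Negative Z-scores can be read as non-binding.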

[2] = biological target: Man(a1-2)Man(a1-3)[Man(a1-2)Man(a1-6)]Man(a1-6)[Man(a1-2)Man(a1-2)Man(a1-3)]Man
Summary of the method: as §1

[3] = biological target: Man(a1-2)Man(a1-3)[Man(a1-2)Man(a1-6)]Man(a1-6)[Man(a1-2)Man(a1-2)Man(a1-3)]Man(b1-4)GlcNAc(b1-4)GlcNAc
Summary of the method: as §1

[4] = biological target: Man(a1-2)Man(a1-3)[Man(a1-6)]Man(a1-6)[Man(a1-2)Man(a1-3)]Man(b1-4)GlcNAc(b1-4)GlcNAc
Summary of the method: as §1

[5] = biological target: Man(a1-2)Man(a1-6)[Man(a1-3)]Man(a1-6)[Man(a1-2)Man(a1-2)Man(a1-3)]Man
Summary of the method: as §1

[6] = biological target: Man(a1-2)Man(a1-6)[Man(a1-3)]Man(a1-6)[Man(a1-2)Man(a1-2)Man(a1-3)]Man(b1-4)GlcNAc(b1-4)GlcNAc
Summary of the method: as §1

Man(a1-3)[Man(a1-6)]Man = biological target: Man(a1-3)[Man(a1-6)]Man
Summary of the method: as §1

[7] = biological target: Man(a1-3)[Man(a1-6)]Man(a1-6)[Man(a1-2)Man(a1-3)]Man(b1-4)GlcNAc(b1-4)GlcNAc
Summary of the method: as §1

[8] = biological target: Man(a1-3)[Man(a1-6)]Man(a1-6)[Man(a1-3)]Man
Summary of the method: as §1

[9] = biological target: Man(a1-3)[Man(a1-6)]Man(a1-6)[Man(a1-3)]Man(b1-4)GlcNAc(b1-4)GlcNAc
Summary of the method: as §1

[10] = biological target: Man(a1-3)[Man(a1-6)]Man(b1-4)GlcNAc(b1-4)GlcNAc
Summary of the method: as §1

[11] = biological target: Man(a1-3)[Man(a1-6)]Man(b1-4)GlcNAc(b1-4)[Fuc(a1-6)]GlcNAc
Summary of the method: as §1

Man(a1-6)Man = biological target: Man(a1-6)Man
Summary of the method: as §1

Man(b1-4)GlcNAc = biological target: Man(b1-4)GlcNAc
Summary of the method: as §1

MurNAc(b1-4)GlcNAc = biological target: MurNAc(b1-4)GlcNAc
Summary of the method: as §1

Neu5Ac(a2-3)Gal = biological target: Neu5Ac(a2-3)Gal
Summary of the method: as §1

[12] = biological target: Neu5Ac(a2-3)Gal(b1-3)GalNAc
Summary of the method: as §1

[13] = biological target: Neu5Ac(a2-3)Gal(b1-3)GalNAc(b1-3)Gal(a1-4)Gal(b1-4)Glc
Summary of the method: as §1

[14] = biological target: Neu5Ac(a2-3)Gal(b1-3)GalNAc(b1-4)Gal(b1-4)Glc
Summary of the method: as §1

[15] = biological target: Neu5Ac(a2-3)Gal(b1-3)GalNAc(b1-4)[Neu5Ac(a2-3)]Gal(b1-4)Glc
Summary of the method: as §1

[16] = biological target: Neu5Ac(a2-3)Gal(b1-3)GalNAc(b1-4)[Neu5Ac(a2-8)Neu5Ac(a2-3)]Gal(b1-4)Glc
Summary of the method: as §1

[17] = biological target: Neu5Ac(a2-3)Gal(b1-3)GalNAc6S
Summary of the method: as §1

[18] = biological target: Neu5Ac(a2-3)Gal(b1-3)GlcNAc
Summary of the method: as §1

[19] = biological target: Neu5Ac(a2-3)Gal(b1-3)GlcNAc(b1-2)Man
Summary of the method: as §1

[20] = biological target: Neu5Ac(a2-3)Gal(b1-3)GlcNAc(b1-2)Man(a1-3)[GlcNAc(b1-4)][Neu5Ac(a2-3)Gal(b1-3)GlcNAc(b1-2)Man(a1-6)]Man(b1-4)GlcNAc(b1-4)GlcNAc
Summary of the method: as §1

[21] = biological target: Neu5Ac(a2-3)Gal(b1-3)GlcNAc(b1-2)Man(a1-3)[Neu5Ac(a2-3)Gal(b1-3)GlcNAc(b1-2)Man(a1-6)]Man(b1-4)GlcNAc(b1-4)GlcNAc
Summary of the method: as §1

[22] = biological target: Neu5Ac(a2-3)Gal(b1-3)GlcNAc(b1-2)[Neu5Ac(a2-3)Gal(b1-3)GlcNAc(b1-4)]Man(a1-6)[Neu5Ac(a2-3)Gal(b1-3)GlcNAc(b1-2)Man(a1-3)]Man(b1-4)GlcNAc(b1-4)GlcNAc
Summary of the method: as §1

[23] = biological target: Neu5Ac(a2-3)Gal(b1-3)GlcNAc(b1-3)Gal(b1-3)GlcNAc
Summary of the method: as §1

[24] = biological target: Neu5Ac(a2-3)Gal(b1-3)GlcNAc(b1-3)Gal(b1-4)GlcNAc
Summary of the method: as §1

[25] = biological target: Neu5Ac(a2-3)Gal(b1-3)GlcNAc(b1-3)GalNAc
Summary of the method: as §1

[26] = biological target: Neu5Ac(a2-3)Gal(b1-3)GlcNAc(b1-6)GalNAc
Summary of the method: as §1

[27] = biological target: Neu5Ac(a2-3)Gal(b1-3)GlcNAc6S
Summary of the method: as §1

[28] = biological target: Neu5Ac(a2-3)Gal(b1-3)[Fuc(a1-4)]GlcNAc
Summary of the method: as §1

[29] = biological target: Neu5Ac(a2-3)Gal(b1-3)[Fuc(a1-4)]GlcNAc(b1-3)Gal(b1-3)[Fuc(a1-4)]GlcNAc
Summary of the method: as §1

[30] = biological target: Neu5Ac(a2-3)Gal(b1-3)[Fuc(a1-4)]GlcNAc(b1-3)Gal(b1-4)[Fuc(a1-3)]GlcNAc
Summary of the method: as §1

[31] = biological target: Neu5Ac(a2-3)Gal(b1-3)[GlcNAc(b1-6)]GalNAc
Summary of the method: as §1

[32] = biological target: Neu5Ac(a2-3)Gal(b1-3)[Neu5Ac(a2-6)]GalNAc
Summary of the method: as §1

[33] = biological target: Neu5Ac(a2-3)Gal(b1-3)[Neu5Ac(a2-6)]GlcNAc(b1-3)[Fuc(a1-3)[Gal(b1-4)]GlcNAc(b1-6)]Gal(b1-4)Glc
Summary of the method: as §1

B1: BC2LB (Burholderia cenocepacia), B4EH85_BURCJ (protein)
chain: MGSSHHHHHHSSGENLYFQGHMSQPFTHDDLYALLQLAGNDATAVQANGDQAVLDRMRQFMTAQLVEKLPQYDVFVDIATIPYSFDVGSWQNKVKTDAAGEVVACTVTWAGAPGVLPGAAAKFGVGAVVNYFSKATPH
For B1, the “glycan array binding signal (z-score)” value [1] was -0.345, the “glycan array binding signal (z-score)” value [2] was -0.231 and the “glycan array binding signal (z-score)” value [3] was 0.196. The “glycan array binding signal (z-score)” value [4] was -0.397, the “glycan array binding signal (z-score)” value [5] was -0.2 and the “glycan array binding signal (z-score)” value [6] was 0.843. The “glycan array binding signal (z-score)” value (Man(a1-3)[Man(a1-6)]Man) was -0.094, the “glycan array binding signal (z-score)” value [7] was 0.045 and the “glycan array binding signal (z-score)” value [8] was 0.084. The “glycan array binding signal (z-score)” value [9] was -0.1, the “glycan array binding signal (z-score)” value [10] was -0.2 and the “glycan array binding signal (z-score)” value [11] was -0.173. The “glycan array binding signal (z-score)” value (Man(a1-6)Man) was -0.276, the “glycan array binding signal (z-score)” value (Man(b1-4)GlcNAc) was -0.123 and the “glycan array binding signal (z-score)” value (MurNAc(b1-4)GlcNAc) was -0.288. The “glycan array binding signal (z-score)” value (Neu5Ac(a2-3)Gal) was 0.035, the “glycan array binding signal (z-score)” value [12] was -0.184 and the “glycan array binding signal (z-score)” value [13] was -0.166. For the same binder, the “glycan array binding signal (z-score)” value [14] was 0.504, the “glycan array binding signal (z-score)” value [15] was -0.212 and the “glycan array binding signal (z-score)” value [16] was -0.112. The “glycan array binding signal (z-score)” value [17] was 0.093, the “glycan array binding signal (z-score)” value [18] was -0.199 and the “glycan array binding signal (z-score)” value [19] was -0.112. The “glycan array binding signal (z-score)” value [20] was -0.25, the “glycan array binding signal (z-score)” value [21] was -0.156 and the “glycan array binding signal (z-score)” value [22] was 0.345. The “glycan array binding signal (z-score)” value [23] was -0.267, the “glycan array binding signal (z-score)” value [24] was -0.208 and the “glycan array binding signal (z-score)” value [25] was -0.246. For the same binder, the “glycan array binding signal (z-score)” value [26] was -0.177, the “glycan array binding signal (z-score)” value [27] was -0.087 and the “glycan array binding signal (z-score)” value [28] was -0.228. For the same binder, the “glycan array binding signal (z-score)” value [29] was 0.18, the “glycan array binding signal (z-score)” value [30] was -0.052 and the “glycan array binding signal (z-score)” value [31] was -0.242. The “glycan array binding signal (z-score)” value [32] was 2.87 and the “glycan array binding signal (z-score)” value [33] was -0.048.
